The values below come from PubChem BioAssay AID270 (DTP/NCI, 2004).

Results filed as inconclusive are left out. A number of entries come with more than one value. The other results are left out here. An entry can have further records. Values given together repeat one measurement in other runs, samples, wells, individuals or studies. *1 amine or outer side, *2 acyl side, *3 side chain or, on linkers, in order; H or OH if unused. Where a SMILES comes first, the peptide text is derived from it. Bridges are numbered along the chain shown (N, C = ends). Roman numbers before positions name the chains, in order. [ ]: non-standard residue; d: D form. Actinocin(9to1) = Cc1c2oc3c(C)ccc(C(=O)[*:1])c3nc-2c(C(=O)[*:2])c(N)c1=O; aThr = C[C@H](O)[C@H](N)C(=O)O; NMeV = CN[C@H](C(=O)O)C(C)C; Sar = CNCC(=O)O

The assay deals with BDF1 mice, s.c. Lewis lung carcinoma, T/C %. The experiment in a line: NCI In Vivo Anticancer Drug Screen. Data for tumor model Lewis Lung Carcinoma (subcutaneous) in B6D2F1 (BDF1) mice. How it is done:
The antitumor activity of compounds was measured in mice bearing transplantable tumors. Survival or tumor size were measured and the results are expressed as the measurement made in the treated group (T) divided by the measurement made in the vehicle treated control group (C). The tumor model used in this assay is Lewis Lung Carcinoma (subcutaneous) in B6D2F1 (BDF1) mice

Where [1] appears, read: endpoint: mean tumor weight, dose: 250.0 mg/kg/injection, schedule: Q01DX011 (sc), vehicle: steriod suspending solution, higher = larger tumour.
Where [2] appears, read: endpoint: median survival time, dose: 4.0 mg/kg/injection, schedule: Q01DX009 (ip), vehicle: saline with Tween-80, higher = longer survival.
The mark [3] stands for this setting: endpoint: mean tumor weight, dose: 500.0 mg/kg/injection, schedule: Q01DX011 (sc), vehicle: steriod suspending solution, higher = larger tumour.

Turning to `O=NN(CCCl)C(=O)Nc1ccc2[nH]c3ccccc3c2c1`, under “endpoint: median survival time, dose: 16.25 mg/kg/injection, schedule: Q01DX009 (ip), vehicle: Klucel (hydroxypropylcellulose) (HPC), higher = longer survival”, the T/C was 109 % of control and 164 % of control.
For `CC(=O)Nc1cc2c(cc1Br)-c1ccccc1C2O` (centres undefined), for the setting “endpoint: mean tumor weight, dose: 35.0 mg/kg/injection, schedule: Q01DX011 (ip), vehicle: saline, higher = larger tumour”, the T/C is on record as 21 % of control, 40 % of control, 62 % of control.
For the compound `C[C@]12CC[C@H](O)CC1=CC[C@@H]1[C@@H]2CC[C@]2(C)c3nc4ccccc4cc3C[C@@H]12`, the T/C under setting [1] is 43 % of control and 69 % of control.
On to `CO[C@@H]1[C@@H](OC2OC(C)C(OC3CC(C)(O)C(OC(=O)CC(C)C)C(C)O3)C(N(C)C)C2O)[C@@H](CC=O)C[C@@H](C)C(=O)/C=C/C2O[C@H]2C[C@@H](C)OC(=O)C[C@H]1OC(C)=O` (some centres undefined), for which the T/C (endpoint: mean tumor weight, dose: 75.0 mg/kg/injection, schedule: Q01DX011 (ip), vehicle: saline, higher = larger tumour) is 49 % of control and 81 % of control.
As to `CNS(=O)(=O)c1ncnc2nc[nH]c12`, the T/C (endpoint: mean tumor weight, dose: 75.0 mg/kg/injection, schedule: Q01DX011 (ip), vehicle: carboxymethylcellulose (CMC), higher = larger tumour) is 25 % of control and 62 % of control.
Regarding `N=C(N)Sc1cc(O)ccc1O`, the T/C was 100 % of control and 150 % of control (endpoint: median survival time, dose: 75.0 mg/kg/injection, schedule: Q01DX009 (ip), vehicle: saline, higher = longer survival); 103 % of control and 150 % of control (endpoint: median survival time, dose: 150.0 mg/kg/injection, schedule: Q01DX009 (ip), vehicle: saline, higher = longer survival).
On to `COc1cc(O)c2c(c1)Cc1cc(C)cc(O)c1C2=O`, for which the T/C runs as follows: (endpoint: median survival time, dose: 0.8 mg/kg/injection, schedule: Q01DX009 (ip), vehicle: saline with Tween-80, higher = longer survival) 117 % of control and 151 % of control; (endpoint: median survival time, dose: 1.6 mg/kg/injection, schedule: Q01DX009 (ip), vehicle: saline with Tween-80, higher = longer survival) 117 % of control and 161 % of control.
For `Cc1c(N)nc([C@H](CC(N)=O)NC[C@H](N)C(N)=O)nc1C(=O)N[C@H](C(=O)N[C@H](C)[C@@H](O)[C@H](C)C(=O)N[C@H](C(=O)NCCc1nc(-c2nc(C(=O)NCCC[S+](C)C)cs2)cs1)[C@@H](C)O)C(OC1OC(CO)C(O)C(O)C1OC1OC(CO)C(O)C(OC(N)=O)C1O)c1cnc[nH]1` (some centres undefined), the T/C (endpoint: median survival time, dose: 16.0 mg/kg/injection, schedule: Q01DX009 (ip), vehicle: saline, higher = longer survival) was 114 % of control and 159 % of control.
With `O=C(O)CCCc1ccc(N(CCCl)CCCl)cc1`, under setting [2], the T/C was 110 % of control and 152 % of control.
In the case of `S=c1nc[nH]c2nc[nH]c12`, the T/C is 82 % of control and 153 % of control (endpoint: median tumor weight (est.), dose: 10.0 mg/kg/injection, schedule: Q01DX011 (ip), vehicle: alkali diluted with saline, higher = larger tumour); 73 % of control, 82 % of control, 113 % of control (endpoint: median tumor weight (est.), dose: 20.0 mg/kg/injection, schedule: Q01DX011 (ip), vehicle: alkali diluted with saline, higher = larger tumour); 60 % of control, 79 % of control, 104 % of control (endpoint: median tumor weight (est.), dose: 40.0 mg/kg/injection, schedule: Q01DX011 (ip), vehicle: alkali diluted with saline, higher = larger tumour).
`C1CN1c1nc(N2CC2)nc(N2CC2)n1`: the T/C (endpoint: median survival time, dose: 1.0 mg/kg/injection, schedule: Q08DX002 (ip), vehicle: saline, higher = longer survival) is reported as 100 % of control, 106 % of control, 170 % of control.
As to `CC(C)(C)c1ccc(CN2CCN(C(c3ccccc3)c3ccc(Cl)cc3)CC2)cc1` (centres undefined), the T/C by setting is: (endpoint: median survival time, dose: 1.0 mg/kg/injection, schedule: Q01DX009 (ip), vehicle: saline with Tween-80, higher = longer survival) 106 % of control and 169 % of control; under setting [2], 112 % of control, 163 % of control, 164 % of control.
Turning to `NNc1nncc2ccccc12`, the T/C (endpoint: mean tumor weight, dose: 45.0 mg/kg/injection, schedule: Q01DX011 (ip), vehicle: carboxymethylcellulose (CMC), higher = larger tumour) is 49 % of control and 97 % of control.
`C[C@]12CC[C@@H]3c4ccccc4CC[C@H]3[C@@H]1CC[C@@H]2O`: the T/C under setting [3] was 26 % of control and 78 % of control.
In the case of `CC(=O)OCC(=O)[C@@]1(O)CC[C@H]2[C@@H]3C[C@H](C)C4=CC(=O)C=C[C@]4(C)[C@@]3(Br)[C@@H](O)C[C@@]21C`, under “endpoint: mean tumor weight, dose: 2.25 mg/kg/injection, schedule: Q01DX011 (sc), vehicle: steriod suspending solution, higher = larger tumour”, the T/C is 48 % of control and 82 % of control.
Turning to `OC(CBr)C(O)C(O)C(O)CBr` (centres undefined), the T/C (endpoint: mean tumor weight, dose: 200.0 mg/kg/injection, schedule: Q01DX011 (ip), vehicle: saline, higher = larger tumour) was 38 % of control and 172 % of control.
Consider `CC[C@]1(O)C[C@H]2CN(CCc3c([nH]c4ccccc34)[C@@](C(=O)OC)(c3cc4c(cc3OC)N(C=O)[C@H]3[C@@](O)(C(=O)OC)[C@H](OC(C)=O)[C@]5(CC)C=CCN6CC[C@]43[C@@H]65)C2)C1`, for which the T/C (endpoint: mean tumor weight, dose: 0.33 mg/kg/injection, schedule: Q01DX011 (ip), vehicle: saline, higher = larger tumour) was 63 % of control and 90 % of control.
Regarding `CCN(CC)C(=S)S.[Te]`, the T/C reads like this: (endpoint: mean tumor weight, dose: 12.5 mg/kg/injection, schedule: Q01DX011 (ip), vehicle: carboxymethylcellulose (CMC), higher = larger tumour) 39 % of control and 65 % of control; (endpoint: mean tumor weight, dose: 25.0 mg/kg/injection, schedule: Q01DX011 (ip), vehicle: carboxymethylcellulose (CMC), higher = larger tumour) 32 % of control and 72 % of control; (endpoint: mean tumor weight, dose: 100.0 mg/kg/injection, schedule: Q01DX011 (ip), vehicle: carboxymethylcellulose (CMC), higher = larger tumour) 10 % of control, 16 % of control, 53 % of control.
Take `Cc1c2oc3c(C)ccc(C(=O)N[C@@H]4C(=O)N[C@H](C(C)C)C(=O)N5CCC[C@H]5C(=O)N(C)CC(=O)N(C)[C@@H](C(C)C)C(=O)O[C@H]4C)c3nc-2c(C(=O)N[C@@H]2C(=O)N[C@H](C(C)C)C(=O)N3CCC[C@H]3C(=O)N(C)CC(=O)N(C)[C@@H](C(C)C)C(=O)O[C@H]2C)c(N)c1=O` (I: [aThr][dV]P[Sar][NMeV] / II: [aThr][dV]P[Sar][NMeV]; ester I:1-I:C, II:1-II:C; linker I:N-II:N via Actinocin(9to1)): the T/C (endpoint: median survival time, dose: 12.0 micrograms/kg/injection, schedule: Q01DX009 (ip), vehicle: saline, higher = longer survival) is 100 % of control, 103 % of control, 155 % of control.
For `CCCCCC(=O)O[C@]1(C(C)=O)CC[C@H]2[C@@H]3CCC4=CC(=O)CC[C@]4(C)[C@H]3CC[C@@]21C`, the T/C by setting is: under setting [1], 77 % of control and 117 % of control; under setting [3], 60 % of control and 110 % of control.
With `O=P1(N(CCCl)CCCl)NCCCO1` (centres undefined), the T/C was 32 % of control, 40 % of control, 152 % of control (endpoint: mean tumor weight (est.), dose: 23.0 mg/kg/injection, schedule: Q01DX009 (ip), vehicle: saline, higher = larger tumour); 19 % of control and 75 % of control (endpoint: mean tumor weight (est.), dose: 39.0 mg/kg/injection, schedule: Q01DX009 (ip), vehicle: saline, higher = larger tumour); 96 % of control and 177 % of control (endpoint: median survival time, dose: 29.6 mg/kg/injection, schedule: Q04DX003 (ip), vehicle: saline, higher = longer survival).
Take `CCCCn1cnc2c(SC)nc(N)nc21`: the T/C (endpoint: mean tumor weight, dose: 240.0 mg/kg/injection, schedule: Q01DX011 (ip), vehicle: other, higher = larger tumour) is 43 % of control and 77 % of control.
As to `CS(=O)(=O)OCC(O)C(O)C(O)C(O)COS(C)(=O)=O` (centres undefined), the T/C (endpoint: mean tumor weight, dose: 100.0 mg/kg/injection, schedule: Q01DX011 (ip), vehicle: saline, higher = larger tumour) is 74 % of control and 110 % of control.
As to `C=CCn1c(=O)n(CC=C)c(=O)n(CC=C)c1=O`, the T/C is 48 % of control and 83 % of control (endpoint: mean tumor weight, dose: 30.0 mg/kg/injection, schedule: Q01DX011 (ip), vehicle: carboxymethylcellulose (CMC), higher = larger tumour); 74 % of control and 121 % of control (endpoint: mean tumor weight, dose: 60.0 mg/kg/injection, schedule: Q01DX011 (ip), vehicle: carboxymethylcellulose (CMC), higher = larger tumour).
Turning to `C[C@@H]1CC[C@@]2(NC1)O[C@H]1C[C@H]3[C@@H]4CC=C5C[C@@H](O)CC[C@]5(C)[C@H]4CC[C@]3(C)[C@H]1[C@@H]2C`, the T/C was 58 % of control, 66 % of control, 87 % of control (endpoint: mean tumor weight, dose: 11.1 mg/kg/injection, schedule: Q01DX011 (ip), vehicle: carboxymethylcellulose (CMC), higher = larger tumour); 53 % of control and 167 % of control (endpoint: mean tumor weight, dose: 27.0 mg/kg/injection, schedule: Q01DX011 (sc), vehicle: steriod suspending solution, higher = larger tumour).
As for `O=C1CN=C(c2ccc[nH]2)c2cc(Cl)ccc2N1`, the T/C (endpoint: mean tumor weight, dose: 80.0 mg/kg/injection, schedule: Q01DX011 (ip), vehicle: other, higher = larger tumour) was 8 % of control and 109 % of control.
Turning to `COc1ccc2c(c1)CC[C@@H]1[C@@H]2CC[C@]2(C)/C(=N\O)CC[C@@H]12`, the T/C runs as follows: (endpoint: mean tumor weight, dose: 10.0 mg/kg/injection, schedule: Q01DX011 (sc), vehicle: steriod suspending solution, higher = larger tumour) 112 % of control and 165 % of control; (endpoint: mean tumor weight, dose: 25.0 mg/kg/injection, schedule: Q01DX011 (sc), vehicle: steriod suspending solution, higher = larger tumour) 109 % of control and 177 % of control; (endpoint: mean tumor weight, dose: 100.0 mg/kg/injection, schedule: Q01DX011 (sc), vehicle: steriod suspending solution, higher = larger tumour) 44 % of control, 73 % of control, 119 % of control.
For the compound `N=[N+]=CC(=O)OCC(N)C(=O)O` (centres undefined), the T/C (endpoint: mean tumor weight, dose: 5.0 mg/kg/injection, schedule: Q01DX011 (ip), vehicle: saline, higher = larger tumour) is 60 % of control and 100 % of control.
For the compound `CCOC(=O)C1CCC(NC(=O)N(CCCl)N=O)CC1` (centres undefined), the T/C (endpoint: median survival time, dose: 45.0 mg/kg/injection, schedule: Q01DX001 (ip), vehicle: gum acacia, higher = longer survival) is 78 % of control and 199 % of control.
Take `CC1(C)CCC(NC(=O)N(CCF)N=O)CC1`: where the note is “endpoint: median survival time, dose: 13.0 mg/kg/injection, schedule: Q01DX009 (ip), vehicle: saline with Tween-80, higher = longer survival”, the T/C is 118 % of control and 190 % of control.
